Data published in article PMC3332055.
These are yes or no findings as the source states them, for the method shown. Binding seen in cells or lysates may run through a third protein. Some results given as binding are weak or reduced against the parent protein; the word gives no strength.

Sequences of proteins named here, by UniProt entry; tags and fusion partners are left off.
UniProt P22415: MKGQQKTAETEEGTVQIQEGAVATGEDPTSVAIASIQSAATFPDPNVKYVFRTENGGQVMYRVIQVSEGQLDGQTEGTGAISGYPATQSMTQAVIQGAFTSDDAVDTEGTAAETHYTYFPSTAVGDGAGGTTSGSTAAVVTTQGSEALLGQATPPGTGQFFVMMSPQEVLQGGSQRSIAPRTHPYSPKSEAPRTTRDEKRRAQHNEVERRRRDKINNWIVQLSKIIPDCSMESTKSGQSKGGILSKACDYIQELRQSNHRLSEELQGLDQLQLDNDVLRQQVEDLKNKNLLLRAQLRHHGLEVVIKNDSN
UniProt P25490: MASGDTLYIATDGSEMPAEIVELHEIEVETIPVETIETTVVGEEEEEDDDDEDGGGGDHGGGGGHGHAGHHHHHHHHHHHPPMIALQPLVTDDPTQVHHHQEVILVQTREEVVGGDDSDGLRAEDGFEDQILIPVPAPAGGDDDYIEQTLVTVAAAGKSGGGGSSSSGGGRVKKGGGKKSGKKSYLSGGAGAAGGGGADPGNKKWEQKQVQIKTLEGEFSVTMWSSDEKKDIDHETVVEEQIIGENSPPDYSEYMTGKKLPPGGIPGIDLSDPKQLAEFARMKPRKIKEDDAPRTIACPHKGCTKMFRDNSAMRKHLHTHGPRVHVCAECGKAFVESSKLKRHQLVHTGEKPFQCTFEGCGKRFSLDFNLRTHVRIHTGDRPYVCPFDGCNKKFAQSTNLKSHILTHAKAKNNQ
UniProt P23511: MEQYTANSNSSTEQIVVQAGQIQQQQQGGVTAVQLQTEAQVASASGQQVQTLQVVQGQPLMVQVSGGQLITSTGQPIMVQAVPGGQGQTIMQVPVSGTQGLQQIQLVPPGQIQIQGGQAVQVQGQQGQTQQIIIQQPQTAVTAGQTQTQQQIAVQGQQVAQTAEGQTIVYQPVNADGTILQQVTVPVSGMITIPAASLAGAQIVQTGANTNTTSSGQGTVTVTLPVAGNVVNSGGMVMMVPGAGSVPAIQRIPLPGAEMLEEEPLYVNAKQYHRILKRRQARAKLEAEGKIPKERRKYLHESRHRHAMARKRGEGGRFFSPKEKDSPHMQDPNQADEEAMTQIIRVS
UniProt Q15853: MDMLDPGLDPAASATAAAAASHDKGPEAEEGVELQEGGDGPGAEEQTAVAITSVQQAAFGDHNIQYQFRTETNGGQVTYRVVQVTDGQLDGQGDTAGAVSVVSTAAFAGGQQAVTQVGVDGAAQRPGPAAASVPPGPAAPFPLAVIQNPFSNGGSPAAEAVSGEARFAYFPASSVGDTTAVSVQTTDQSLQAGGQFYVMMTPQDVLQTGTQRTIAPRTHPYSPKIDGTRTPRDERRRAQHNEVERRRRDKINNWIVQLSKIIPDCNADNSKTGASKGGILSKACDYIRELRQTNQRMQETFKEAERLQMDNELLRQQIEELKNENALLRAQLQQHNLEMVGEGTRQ
UniProt Q09472: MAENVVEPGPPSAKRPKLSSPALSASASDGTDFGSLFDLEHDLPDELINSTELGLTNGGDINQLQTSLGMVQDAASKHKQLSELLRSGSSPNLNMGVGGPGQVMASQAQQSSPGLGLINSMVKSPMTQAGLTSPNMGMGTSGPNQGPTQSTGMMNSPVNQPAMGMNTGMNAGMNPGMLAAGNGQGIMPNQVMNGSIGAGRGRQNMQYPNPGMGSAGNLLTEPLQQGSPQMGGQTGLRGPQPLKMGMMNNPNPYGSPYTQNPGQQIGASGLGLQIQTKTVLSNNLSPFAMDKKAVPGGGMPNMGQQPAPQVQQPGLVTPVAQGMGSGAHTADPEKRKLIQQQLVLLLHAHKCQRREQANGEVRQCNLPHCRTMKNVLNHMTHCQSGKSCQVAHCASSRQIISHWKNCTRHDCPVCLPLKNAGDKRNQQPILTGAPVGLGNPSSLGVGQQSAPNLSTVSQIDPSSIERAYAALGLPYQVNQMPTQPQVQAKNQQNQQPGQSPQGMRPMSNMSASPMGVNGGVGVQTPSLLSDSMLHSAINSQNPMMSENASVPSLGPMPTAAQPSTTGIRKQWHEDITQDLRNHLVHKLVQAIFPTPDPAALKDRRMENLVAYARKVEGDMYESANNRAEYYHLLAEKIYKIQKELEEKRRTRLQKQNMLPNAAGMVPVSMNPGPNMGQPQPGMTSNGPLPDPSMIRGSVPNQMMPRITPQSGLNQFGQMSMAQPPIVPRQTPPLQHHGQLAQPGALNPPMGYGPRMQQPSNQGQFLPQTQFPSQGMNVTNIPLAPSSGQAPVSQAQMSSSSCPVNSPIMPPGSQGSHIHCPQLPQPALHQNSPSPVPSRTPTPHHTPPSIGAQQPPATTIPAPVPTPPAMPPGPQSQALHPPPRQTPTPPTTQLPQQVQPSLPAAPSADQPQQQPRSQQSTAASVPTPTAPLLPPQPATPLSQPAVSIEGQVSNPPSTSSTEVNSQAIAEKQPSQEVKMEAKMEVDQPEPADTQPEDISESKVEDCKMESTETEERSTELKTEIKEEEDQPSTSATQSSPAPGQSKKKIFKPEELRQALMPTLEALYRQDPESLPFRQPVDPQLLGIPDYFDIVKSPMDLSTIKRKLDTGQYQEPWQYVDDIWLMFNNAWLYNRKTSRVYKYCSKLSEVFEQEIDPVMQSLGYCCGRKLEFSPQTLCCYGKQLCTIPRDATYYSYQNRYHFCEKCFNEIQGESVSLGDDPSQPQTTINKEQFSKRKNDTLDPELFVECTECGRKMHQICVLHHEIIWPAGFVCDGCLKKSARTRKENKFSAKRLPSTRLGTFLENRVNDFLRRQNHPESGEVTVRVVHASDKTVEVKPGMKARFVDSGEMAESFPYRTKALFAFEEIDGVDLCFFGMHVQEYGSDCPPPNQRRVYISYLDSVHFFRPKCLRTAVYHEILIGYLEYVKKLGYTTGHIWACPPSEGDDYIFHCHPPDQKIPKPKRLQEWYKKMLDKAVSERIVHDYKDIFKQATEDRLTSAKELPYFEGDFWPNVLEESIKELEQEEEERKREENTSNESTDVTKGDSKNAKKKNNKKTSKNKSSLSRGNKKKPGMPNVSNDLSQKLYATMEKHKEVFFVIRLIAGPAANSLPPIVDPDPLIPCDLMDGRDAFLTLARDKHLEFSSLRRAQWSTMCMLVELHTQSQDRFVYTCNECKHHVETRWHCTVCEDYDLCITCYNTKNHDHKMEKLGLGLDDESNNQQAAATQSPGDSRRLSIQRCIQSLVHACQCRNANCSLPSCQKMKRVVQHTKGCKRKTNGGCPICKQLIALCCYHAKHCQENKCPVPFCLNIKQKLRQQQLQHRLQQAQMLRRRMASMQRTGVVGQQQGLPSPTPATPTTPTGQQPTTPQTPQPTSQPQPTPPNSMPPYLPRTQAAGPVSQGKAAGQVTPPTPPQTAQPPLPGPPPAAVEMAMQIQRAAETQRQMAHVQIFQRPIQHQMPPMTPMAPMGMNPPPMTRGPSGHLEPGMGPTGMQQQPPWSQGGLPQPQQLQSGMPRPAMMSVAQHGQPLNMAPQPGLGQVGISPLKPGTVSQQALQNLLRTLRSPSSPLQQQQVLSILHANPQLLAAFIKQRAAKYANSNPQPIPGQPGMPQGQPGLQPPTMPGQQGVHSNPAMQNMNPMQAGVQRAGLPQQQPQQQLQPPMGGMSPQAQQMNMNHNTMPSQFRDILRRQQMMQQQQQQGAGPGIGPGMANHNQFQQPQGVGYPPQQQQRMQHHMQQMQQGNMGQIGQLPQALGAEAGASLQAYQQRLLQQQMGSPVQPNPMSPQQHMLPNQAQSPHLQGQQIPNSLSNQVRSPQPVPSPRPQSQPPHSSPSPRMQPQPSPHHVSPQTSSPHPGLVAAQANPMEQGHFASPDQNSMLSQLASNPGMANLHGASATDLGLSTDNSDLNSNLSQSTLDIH

How the values were obtained:
Test in all cases: co-IP; HeLa cell lysate, endogenous proteins; 2 µg of antibody (YY1, USF1, USF2, NF-YA or NF-YB) and protein G plus-agarose beads overnight; washed with lysis buffer containing 0.5 M NaCl; immunoblot with anti-p300 antibody
[1] = target: Upstream Stimulating Factor 1 (USF1) (human (endogenous in HeLa)) (UniProt P22415)
[2] = target: Yin Yang-1 (YY1) (human (endogenous in HeLa)) (UniProt P25490)
[3] = target: Nuclear Factor-Y subunit A (NF-YA) (human (endogenous in HeLa)) (UniProt P23511)
[4] = target: T1, Nuclear Factor-Y subunit B (NF-YB) (human (endogenous in HeLa)) (UniProt P25208)
T1 sequence: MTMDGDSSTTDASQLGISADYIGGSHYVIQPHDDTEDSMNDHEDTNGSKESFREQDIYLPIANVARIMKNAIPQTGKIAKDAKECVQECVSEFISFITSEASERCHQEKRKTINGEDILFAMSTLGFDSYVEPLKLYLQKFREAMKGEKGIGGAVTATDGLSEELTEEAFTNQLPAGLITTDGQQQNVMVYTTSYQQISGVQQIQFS

[5] = target: Upstream Stimulating Factor 2 (USF2) (human (endogenous in HeLa)) (UniProt Q15853)

binding [1]: no binding | binding [2]: binds | binding [3]: no binding | binding [4]: binds | binding [5]: binds
Substance: p300 co-activator (from UniProt Q09472 1-2414)
